Assay results reported in PubChem BioAssay AID1159614 (National Center for Advancing Translational Sciences (NCATS), 2016).
The campaign covered roughly 45,000 compounds. About 65 (0.1%) were called active. The call rests on the fitted dose curve; in most records, active means well fitted activation curve with a large enough effect; inconclusive means small, poorly fitted or top-dose-only effect; inactive means no such curve, though single readings can be large or run the other way. The list shows a part of the results.

Target: Galactocerebrosidase (Homo sapiens) (UniProt P54803)
Sequence of UniProt P54803 (P54803 whole entry, looked up): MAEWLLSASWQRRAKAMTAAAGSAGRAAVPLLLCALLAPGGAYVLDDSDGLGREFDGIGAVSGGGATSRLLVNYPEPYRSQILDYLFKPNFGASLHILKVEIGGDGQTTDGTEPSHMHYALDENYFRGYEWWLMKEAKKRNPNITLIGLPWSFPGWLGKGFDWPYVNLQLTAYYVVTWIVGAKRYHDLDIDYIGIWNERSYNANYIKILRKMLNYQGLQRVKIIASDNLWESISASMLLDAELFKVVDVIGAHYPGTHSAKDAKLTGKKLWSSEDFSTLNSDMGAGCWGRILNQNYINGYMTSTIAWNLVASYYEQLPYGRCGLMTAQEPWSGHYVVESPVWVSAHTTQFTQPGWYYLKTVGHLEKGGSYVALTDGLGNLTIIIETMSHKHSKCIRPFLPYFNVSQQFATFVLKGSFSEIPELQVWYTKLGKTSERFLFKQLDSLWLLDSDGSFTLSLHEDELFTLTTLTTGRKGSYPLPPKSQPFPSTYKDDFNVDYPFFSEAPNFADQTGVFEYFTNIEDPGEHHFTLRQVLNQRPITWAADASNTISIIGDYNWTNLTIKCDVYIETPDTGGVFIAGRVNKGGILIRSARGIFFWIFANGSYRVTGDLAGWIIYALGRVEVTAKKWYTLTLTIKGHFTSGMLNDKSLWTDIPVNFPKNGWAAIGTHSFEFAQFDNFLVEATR
Experiment: A Novel Cell-Based Assay to Identify Small Molecules for B -Galactocerebrosidase; further: 0% is about no effect; nearly all actives have a fitted effect of over 65% in size
Settings: 145M-Twi-hGALC-G270D cells (Twitcher mouse brain line with human GALC G270D), HMU-beta-Gal fluorescence, 48 h; series mostly up to 57.5 µM; activation: at the top concentration
In short: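 Fluorogenic HMU-b-Gal hydrolysis (0.1 mM final, pH 5.2 citrate-phosphate with 1 mg/mL sodium taurocholate; carbonate stop buffer) measures mutant GALC activity after compound treatment of live 145M-Twi Twitcher brain cells stably carrying human GALC-G270D, with wild-type GALC line alongside; activation sought.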

activation, inactive:
Cc1cc2oc(C(=O)Nc3c(C(=O)Nc4ccccc4)oc4ccccc34)cc(=O)c2cc1C 24.3%
Cc1cccc(C)c1NC(=O)c1oc2ccc3c(c2c1C)C(=O)CC(C)(C)O3 -0.976%
COc1ccccc1CNC(=O)C1CCCN(S(=O)(=O)c2ccc3c(c2)CCCN3C(C)=O)C1 (configuration not stated) -15.1%
O=C(Cn1ncc2c1-c1ccccc1OC2)N1CCN(c2ccccc2F)CC1 -20.8%
Cc1nnc(NCc2ccccc2)c2c1nnn2Cc1ccccc1Cl -16.1%
CN1C(C(=O)Nc2ccc(F)cc2F)=CC(c2ccco2)=NS1(=O)=O -16.3%
O=C(CSCc1ccccc1Cl)N1CCN(c2ccc(F)cc2)CC1 -19.3%
COc1ccccc1N1CCN(C(=O)c2cc(S(=O)(=O)N3CCC(C)CC3)cn2C)CC1 -1.45%
COc1ccc(-c2nc(CNC(=O)Nc3ccccc3)c(C)o2)cc1 -23.4%
CCCN(c1ccc(C(C)C)cc1)S(=O)(=O)c1ccc2c(c1)oc(=O)n2CC(=O)OCC -18.2%
COc1cccc(Cn2c(CNS(=O)(=O)c3ccc(C(C)(C)C)cc3)nc3cccnc32)c1 -3.68%
COc1ccc(-n2c(=O)c3ccccc3n(Cc3cccc(C)c3)c2=O)cc1 -26.9%
COc1ccccc1N1CCN(CCCCNC(=O)c2ccc(-c3ccc(C(C)=O)cc3)cc2)CC1 -2.83%
Cc1ccccc1N(C)S(=O)(=O)c1nnc(NC(=O)C(C)C)s1 -12.8%
CCOC(=O)c1ccc(N2C(=O)c3n[nH]c(C)c3C2c2ccc(OCC)cc2)cc1 (configuration not stated) -2.14%
CCOC(=O)Cn1c(=O)n(CC2CCCO2)c2nc(-c3ccc(C(C)C)cc3)nc(C(N)=O)c21 (configuration not stated) -7.92%
CCCSc1nnc2[nH]c(=O)cc(C)n12 -16.6%
O=C(Nc1nnc(S(=O)(=O)Nc2ccccc2)s1)C1CCCCC1 -17.4%
NC(=O)CCCCC1CCSS1 (configuration not stated) -25.7%
Cc1ccccc1NC(=O)Cn1c(=O)n(Cc2ccccc2)c(=O)c2sc3ccccc3c21 -5.8%
CCOc1ccc(C(=O)NCC(c2ccco2)S(=O)(=O)c2cccs2)cc1 (configuration not stated) -20.2%
COC(=O)c1ccc(C(=O)OC)c(NC(=O)c2cnn3c(C(F)F)cc(-c4ccccc4)nc23)c1 -10.6%
CCN(Cc1ccccc1)C(=O)c1nn(-c2ccc(OC)cc2)c(=O)c2c1c1ccccc1n2C -0.717%
Cc1ccccc1-c1nn2c(=O)cc(CN3CCN(S(=O)(=O)c4ccc(Cl)cc4)CC3)nc2s1 4.34%
CCOc1ccc(OCC)c(NC(=O)CCc2nc3cccnc3n2-c2ccccc2)c1 -13.1%
COc1ccccc1N1CCN(C(=O)CSc2n[nH]c(-c3ccccc3Cl)n2)CC1 -11%
O=C(NCC(c1ccc(Cl)cc1)N1CCCCC1)c1ccccc1F (configuration not stated) -28.3%
CCC1CN(C(=O)Nc2ccc(Br)cc2F)c2ccccc2S1 (configuration not stated) -13.8%
Cc1ccccc1NC(=O)[C@H](CSCc1ccccc1)N1Cc2ccccc2C1=O -6.24%
COC(=O)C(NC(=O)CCc1c(C)nc2c(c(C)nn2-c2ccccc2)c1C)C(C)C (configuration not stated) -13.7%
COc1ccc(NC(=O)Cn2c(=O)n(-c3cccc(C(F)(F)F)c3)c(=O)c3sccc32)cc1 -24.3%
Cc1[nH]c2ccccc2c1C1(O)C(=O)N(Cc2ccccc2Cl)c2ccccc21 (configuration not stated) -14.1%
CCN(CC)C(=O)C1CCN(c2nnc(C)c3c(C)n(-c4ccc(Cl)cc4)nc23)CC1 0.0013%
C#CCn1c(C2CC(=O)N(c3ccc(OCC)cc3)C2)nc2ccccc21 (configuration not stated) -14%
CCCOc1ccc(CNC(=O)C2CCCN(c3nc4c(C)cc(C)cc4s3)C2)cc1 (configuration not stated) -15.1%
O=C(NCc1ccc(F)cc1)c1cnc(N2CCCCC2)c2ccccc12 -1.68%
COc1cc(OC)cc(C(=O)Nc2ccc3nc(Nc4cccc(C(F)(F)F)c4)cc(C)c3c2)c1 -10.9%
COc1cc(OC)c(NC(=O)N2CCc3cc(OC)c(OC)cc3C2CC(=O)O)cc1Cl (configuration not stated) -10.7%
CCCCOC(=O)CSc1nnc(-c2ccc(C)cc2)o1 -1.87%
CC(C)c1ccc(C2c3c(-c4ccccc4O)n[nH]c3C(=O)N2Cc2ccncc2)cc1 (configuration not stated) -12.5%
COc1ccc(C(=O)Nc2nnc(C)s2)cc1 -13.8%
CC(C)Cn1c(=O)c2ccccc2n2c(CCC(=O)N3CCN(c4ccccc4)CC3)nnc12 -11.7%
Cc1cccc(NC(=O)c2ccc(F)c(S(=O)(=O)N3CCC4(CC3)OCCO4)c2)c1 0.854%
Cc1ccc(CCNC(=O)c2ccc3c(c2)N(Cc2ccccc2)C(=O)c2ccccc2S3=O)cc1 (configuration not stated) 2.32%
COc1ccc(N2CCN(c3ncnc4onc(-c5ccc(F)cc5)c34)CC2)cc1 -10.1%
COc1ccc(NC(=O)Cn2c(=O)n(CCCC(=O)NCCc3ccc(C)cc3)c(=O)c3ccccc32)cc1Cl -9.91%
O=C(CSc1nnc(-c2ccc(Cl)cc2)o1)Nc1ccc(F)cc1 -10.3%
COc1cccc2c1Oc1ncccc1N(c1ccc(C(=O)NCc3ccccc3Cl)s1)C2 -12.9%
CC(=O)N1CCc2c(sc3c2c(=O)n(CCc2ccccc2)c(=O)n3CC(=O)Nc2ccc(C)c(F)c2)C1 -4.3%
Cc1ccc(Cl)cc1NC(c1ccc(F)cc1)c1nnc(-c2ccccc2)o1 (configuration not stated) 1.96%
Cc1ccn2c(Nc3ccc4c(c3)OCCO4)c(-c3cccs3)nc2c1 -12.6%
Cc1ccc2onc(CNC(=O)Nc3cc(F)ccc3F)c2c1 -20.5%
Cc1ccc2c(c1)Cc1c(nc(-c3ccc(Cl)cc3)nc1SCC(=O)N1CCCCC1)O2 -9.95%
COc1ccc(Nc2cc(C)nc3c(C)c(C)ccc23)cc1 -4.07%
CCc1ccc(C2CC(=O)c3c([nH]c(C(=O)OCCOc4ccccc4)c3C)C2)cc1 (configuration not stated) -20.1%
CC(C)NC[C@@H](O)COc1ccc(CC(N)=O)cc1 -5.64%
NS(=O)(=O)c1cc2c(cc1C(F)(F)F)NCNS2(=O)=O 1.76%
Cc1cc(C)cc(NC(=O)CCCn2c3ccccc3c(=O)c3ccccc32)c1 -21.2%
CC(=O)c1ccc(N2CCN(C(=O)CCCCn3c(=O)[nH]c4ccccc4c3=O)CC2)cc1 -8.58%
COc1ccc(Cl)cc1CNCCSc1nnnn1C -10.3%
CCOc1ccc(CNC(=O)c2cc(=O)[nH]c3ccc(S(=O)(=O)N4CCCC4)cc23)cc1 -13.3%
CCCn1cc(S(=O)(=O)c2ccc(CC)cc2)c(=O)c2cc(F)c(N(CC)CC)cc21 -16.2%
CCOc1cccc(NC(=O)CSc2ncc(-c3ccccc3)[nH]2)c1 -7.9%
Cc1cccc(N2CCN(C(=O)c3ccc4c(c3)N(Cc3cccc(Cl)c3)C(=O)c3ccccc3S4=O)CC2C)c1 (configuration not stated) -16.6%
CCOc1cccc2sc(N3CCN(C(=O)C4CC4)CC3)nc12 -15.8%
O=C(NCC(c1ccc2c(c1)OCO2)N1CCOCC1)C(=O)Nc1cccc(Cl)c1 (configuration not stated) -18.3%
O=C(O)c1c(CNCc2cccc(F)c2)c2ccccc2n1Cc1ccccc1 -5.18%
Cc1cc(-c2ccc(C)c(S(=O)(=O)NCC3CCN(Cc4ccc(F)cc4)CC3)c2)on1 -3.88%
Fc1cccc(Cl)c1Cn1c(-c2cccs2)nc2ccccc21 -26.5%
COc1ccc(OC)c(CNC(=O)c2nn(C)c3c2CSc2ccccc2-3)c1 -6.95%
O=C(NCc1ccc(F)cc1)c1ccc2nc(N3CCCCC3)sc2c1 7.4%
Cc1ccc(NC(=O)CCC(=O)N2Cc3ccccc3Oc3ncccc32)cc1F -1.47%
CCOc1ccc(NC(=O)c2ccc3c(c2)CCN3S(=O)(=O)c2ccc(Cl)cc2)cc1 -9.77%
Cc1cccc(Cn2c(=O)n(CCC(=O)NCCc3ccc(Cl)cc3)c(=O)c3sccc32)c1 -0.804%
Cc1ccc(NC(=O)CCCc2nnc3n(C)c(=O)c4sccc4n23)cc1F -5.29%
COc1ccc(-c2nc3c(c(SCC(=O)Nc4ccccc4F)n2)Cc2cc(C)ccc2O3)cc1 -6.42%
CC(=O)c1ccc(NC(=O)c2cc(S(=O)(=O)N3CCCCCC3)cn2C)cc1 0.754%
Cc1ccc(C)c(N2CCN(C(=O)C3CCCN(Cc4nc(-c5cccc(Cl)c5)oc4C)C3)CC2)c1 (configuration not stated) -16.3%
CC1CCn2c(nc3cc(C(=O)NCc4ccccc4)ccc32)C1 (configuration not stated) -24.3%
O=C(CNC(=O)c1ccccc1)OCc1cc(=O)n2ccsc2n1 -11.9%
CCc1ccccc1NC(=O)CN1C(=O)c2ccccc2Sc2ncccc21 2.1%
NC(=O)C1(N2CCCCC2)CCN(C(=O)Nc2ccc(F)cc2)CC1 -15.9%
CC(O)Cn1cnc2c1c(=O)n(C)c(=O)n2C (configuration not stated) -11.8%
CCCNC(=O)c1ccc2c(c1)sc1nc(-c3ccc(C)cc3)cn12 -8.93%
Cc1ccc(-c2cn(-c3cccc(Cl)c3)c(S(=O)(=O)CC(=O)Nc3cccc(C)c3)n2)cc1 -4.22%
CCOC(=O)c1c(S(=O)(=O)N2CCCC(C(=O)NCc3cccc(OC)c3)C2)c(C)n(C)c1C (configuration not stated) -18.7%
COc1ccc(CCNc2nc(-c3ccc(OC)c(OC)c3)cc(C(F)(F)F)n2)cc1OC -2.08%
Cc1cccc(CS(=O)(=O)Cc2ccc(C(=O)NCCc3ccccc3)o2)c1 0.634%
Cc1ccc(N2CC(NC(=O)c3ccc(S(=O)(=O)N4CCCC4)cc3)CC2=O)cc1C (configuration not stated) -18.9%
CCn1cc(C(=O)NCCCN2CCCC(C)C2)c(=O)c2cc(S(=O)(=O)N(C)C3CCCCC3)ccc21 (configuration not stated) -12.2%
Cc1cc(C)cc(-n2ccn(CC(=O)Nc3cc(C)ccc3C)c(=O)c2=O)c1 -17.9%
O=C(NCc1ccccc1)C1CCN(S(=O)(=O)c2ccc3c(c2)CCCN3C(=O)C2CCC2)CC1 -17.6%
COc1ccc(-c2nnc(SCC(=O)NC3CCCC3)nc2-c2ccc(OC)c(OC)c2)cc1OC -0.322%
CCOc1ccc(N2CC(c3nc4ccccc4n3Cc3ccccc3F)CC2=O)cc1 (configuration not stated) 1.5%
COc1cccc(OC)c1C(=O)Nc1cccc(-c2cn3ccsc3n2)c1 -4.31%
Cc1ccc(Cl)cc1N1CCN(C(=O)CCNS(=O)(=O)c2ccc3c(c2)CCN3C(=O)C2CC2)CC1 -29.3%
CCCCCSc1ncnc2c1sc1nc(N3CCOCC3)c3c(c12)CCCC3 -11.3%
